Consider one molecule from paper PMC6804450 (Acta Pharmaceutica Sinica. B, 2019).

This assay deals with 7H9 scFv-Fc fusion. The experiment in a line: ELISA. (In general: An ELISA detects its analyte on a solid surface through an enzyme-linked reagent.)
Chain of 7H9 scFv-Fc fusion (Q16552 24-155): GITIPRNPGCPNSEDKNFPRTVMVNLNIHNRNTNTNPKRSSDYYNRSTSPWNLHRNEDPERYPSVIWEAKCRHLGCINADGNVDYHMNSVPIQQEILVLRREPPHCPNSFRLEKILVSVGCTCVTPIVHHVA

B1: recombinant human IL-17A (ligand)
chain: not shown
For the molecule B1, the binding result is listed as “binds”.
